About 14,000 (4.5%) of roughly 310,000 compounds showed an effect of 50% or more. The effect is printed as a negative number. This is one part of the list.
molecular target: human ether-à-go-go-related gene (hERG) potassium channel (human, UniProt Q12809); test: primary screen, population patch clamp on CHO cells stably expressing hERG
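Further: peak tail current of the secondary pulse compared with the same well before compound.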

Chain of human ether-à-go-go-related gene (hERG) potassium channel (Q12809 whole entry, looked up): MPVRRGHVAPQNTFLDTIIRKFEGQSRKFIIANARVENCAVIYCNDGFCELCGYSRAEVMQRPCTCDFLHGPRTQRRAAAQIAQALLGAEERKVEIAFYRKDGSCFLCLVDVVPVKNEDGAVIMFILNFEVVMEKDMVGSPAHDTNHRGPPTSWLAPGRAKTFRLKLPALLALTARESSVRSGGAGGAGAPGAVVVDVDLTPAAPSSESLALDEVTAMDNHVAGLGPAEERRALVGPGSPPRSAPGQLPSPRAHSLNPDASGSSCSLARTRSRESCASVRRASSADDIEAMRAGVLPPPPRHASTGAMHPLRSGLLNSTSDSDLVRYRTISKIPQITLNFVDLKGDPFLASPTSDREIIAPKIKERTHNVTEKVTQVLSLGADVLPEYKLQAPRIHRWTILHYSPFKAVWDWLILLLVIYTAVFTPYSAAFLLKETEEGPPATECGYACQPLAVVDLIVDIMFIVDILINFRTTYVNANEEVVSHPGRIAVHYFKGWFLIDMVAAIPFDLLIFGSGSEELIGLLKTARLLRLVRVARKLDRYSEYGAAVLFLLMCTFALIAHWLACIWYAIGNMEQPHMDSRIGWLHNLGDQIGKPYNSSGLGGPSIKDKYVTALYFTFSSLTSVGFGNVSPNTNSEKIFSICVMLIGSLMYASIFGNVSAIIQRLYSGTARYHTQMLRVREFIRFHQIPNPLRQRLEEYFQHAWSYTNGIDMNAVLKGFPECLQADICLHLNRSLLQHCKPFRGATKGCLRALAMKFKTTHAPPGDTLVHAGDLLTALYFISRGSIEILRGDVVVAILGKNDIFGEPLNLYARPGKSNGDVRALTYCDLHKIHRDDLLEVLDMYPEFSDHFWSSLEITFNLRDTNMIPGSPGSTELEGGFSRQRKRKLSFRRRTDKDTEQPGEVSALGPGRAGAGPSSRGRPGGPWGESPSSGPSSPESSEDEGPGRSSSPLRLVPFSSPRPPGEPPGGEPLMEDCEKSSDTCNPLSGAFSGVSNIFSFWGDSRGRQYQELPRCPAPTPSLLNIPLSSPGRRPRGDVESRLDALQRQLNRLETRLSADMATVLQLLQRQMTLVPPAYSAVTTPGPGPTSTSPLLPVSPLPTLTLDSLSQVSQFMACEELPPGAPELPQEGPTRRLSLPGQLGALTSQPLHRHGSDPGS

SMILES | hERG current change (%, negative = inhibition) at 10uM [%]
CC(OC(=O)Cn1cnc2c1c(=O)n(C)c(=O)n2C)C(=O)NC(C)c1ccc(Cl)cc1Cl (centres unmarked) | -29
Cc1ccc(N(CC(=O)NC2CCC(C)CC2)S(=O)(=O)c2cccnc2)cc1 (centres unmarked) | -9.73
Cc1onc(-c2ccccc2)c1C(=O)NCC1COc2ccccc2O1 (centres unmarked) | -7.91
CCOC(=O)C(C)(C)N(Cc1ccc(Cl)cc1)S(=O)(=O)c1ccc(Cl)c([N+](=O)[O-])c1 | -2.82
COc1ccccc1CNC(=O)N1CCN(c2ccccc2)CC1 | -16.9
Cc1ccc(C(=O)CSc2nnc(-c3snnc3C)n2C2CC2)cc1 | 2.82
NC(=O)c1ccsc1NC(=O)COC(=O)CCOc1ccccc1 | -4.76
COC(CN(C)C(=O)C1CCCN(S(=O)(=O)c2ccc3c(c2)oc(=O)n3C)C1)OC (centres unmarked) | 18.4
CCOc1ccc(C2C(C(=O)c3ccc(C)o3)=C(O)C(=O)N2CCCN(CC)CC)cc1 (centres unmarked) | 14.8
CC1CCN(CCC(=O)Nc2ccc3c(c2)OCCO3)CC1.O=C(O)C(=O)O | 30.3
Cc1cccn2c(=O)c3cc(C(=O)NCC4CCCO4)c(=N)n(Cc4cccnc4)c3nc12 (centres unmarked) | -95.1
CCOC(=O)CSc1nnc(NCC(=O)OC(C)C)c(=O)[nH]1 | 17.9
COc1cccc(-c2cc(C(F)(F)F)n3nc(C(=O)Nc4c(C)n(C)n(-c5ccccc5)c4=O)cc3n2)c1 | -10.1
Cc1ccc(C(C)(C)C)cc1S(=O)(=O)Nc1nc2ccccc2nc1Cl | -33.6
CC(Sc1ncn[nH]1)C(=O)Nc1cc(C(F)(F)F)ccc1Cl (centres unmarked) | -3.46
O=C(Nc1ccc(Cl)cn1)C1CCCN1S(=O)(=O)c1ccccc1 (centres unmarked) | -14.9
Cc1cccc(/C(N)=N/OC(=O)Cc2cccs2)c1 | -12.4
Cc1ccccc1OCCSc1nc2ccccc2n1CCC(=O)O | 18.1
Cc1ccc2c(C)c(C(=O)N(Cc3ccc(N(C)C)cc3)C3CCS(=O)(=O)C3)oc2c1 (centres unmarked) | -12.9
CC(=O)N1CCC(N2CCCC(C(=O)c3cccc(Cl)c3)C2)CC1 (centres unmarked) | 5.55
COc1ccc(C2=CC3=C(Br)C(=O)C(C)(OC(=O)C4CCCC4)C(=O)C3=CO2)cc1 (centres unmarked) | -20.9
CCc1cc(C(=O)O)c(NC(=O)/C=C/c2ccc(OC)c(OC)c2)s1 | 45

SMILES | hERG current change (%, negative = inhibition) at 10uM [%]
CCCN(CC(=O)Nc1ccc(C(N)=O)cc1)CC(=O)Nc1ccccc1C | 7.89
CCc1ccccc1N1CC(C(=O)Nc2cc(C)on2)CC1=O (centres unmarked) | -2.78
C=CCNC(=S)NN(c1ccccc1)c1ccccc1 | 1.16
Cc1ccc(S(=O)(=O)N/N=C/C(C)(C)CO)cc1 | 7.63
O=C(Nc1nc(=O)c2ccccc2s1)c1ccccc1 | 8.23
O=C(Nc1ccccc1C(=O)NCc1cccnc1)c1ccco1 | -2.35
CCN1C(=O)[C@H]2[C@@H](c3ccc(C)cc3)N3C(=O)N(c4cccc(Cl)c4)C(=O)[C@@]3(Cc3ccccc3)[C@H]2C1=O | 8.14
O=Cc1c(-c2ccc(F)cc2)nc2ccccn12 | 4.88
Cc1cc(C(=O)CSc2nnc(-c3cccnc3)n2-c2ccccc2F)c(C)n1C | -24.5
CC(=O)N[C@@H]1[C@@H](O)[C@@H]2OC(c3ccccc3)OC[C@H]2O[C@@H]1N=[N+]=[N-] (some centres unmarked) | 13.2
COc1ccc2nc(NC(=O)CSc3ccccc3)sc2c1 | -4.55
CCOc1ccc(Br)cc1S(=O)(=O)Nc1cccc(S(=O)(=O)N(C)c2ccccc2)c1 | 8.61
Cc1sc(N)c(C(=O)c2ccccc2Cl)c1C | 3.8
Cc1ccc(Cc2nc(-c3cccc(C)c3)no2)cc1 | 11.5
COc1cc(NC(=O)CSc2nnc3c(n2)[nH]c2ccc(S(=O)(=O)NC(C)C)cc23)cc(OC)c1OC | 11.6
COc1cc2c(cc1OC)CN(C(=O)c1cccs1)CC2 | -1.52
CCOc1ccc(C(=O)NC2CCN(C(=S)NCc3ccco3)CC2)cc1 | -43.6
Cc1ccc(-c2csc(=S)n2CC(=O)OCC(=O)NCc2ccco2)cc1 | -30.5
C=CCn1c(SCc2n[nH]c(=S)n2-c2ccccc2)nnc1-c1ccccc1 | 14
CC(C)CCN1CCN(Cc2ccsc2)CC1CCO (centres unmarked) | -6.33
O=C(NC1CC1)c1c[nH]c2ccc(S(=O)(=O)Nc3cccc(C(F)(F)F)c3)cc2c1=O | 1.18
CCc1ccc(NC(=S)NCc2cccnc2)cc1 | 8.92

SMILES | hERG current change (%, negative = inhibition) at 10uM [%]
O=C(NN1CCOCC1)c1ccc(Cl)cc1 | -26.1
O=C(NCc1ccncc1)C1CCC(=O)N(CCc2ccc(Cl)cc2)C1 (centres unmarked) | -65.5
Cc1ccc2nc3c(nc2c1)-c1ccccc1C3=O | 7.24
O=C(CCC(F)(F)F)N1CCCC(CO)(CCc2ccccc2)C1 (centres unmarked) | -13.5
COc1cc(/C=N/O)ccc1OCc1ccccc1Cl | 2.43
CCN(c1ccccc1)S(=O)(=O)c1cc([N+](=O)[O-])ccc1N | -10.3
CC(=O)Nc1cc(S(=O)(=O)Nc2ccccc2)c(C)cc1C | -4.25
CCOC(=O)c1[nH]c2ccccc2c1NC(C)=O | -3.18
COc1ccc(C(=O)C[n+]2cccc3cc(C)ccc32)cc1.[Br-] | 15.3
Cc1c(C(=O)NCCCc2ccccc2)cccc1[N+](=O)[O-] | -4.32
CN(C)c1nc(-c2ccccc2)cc(C(F)(F)F)c1C#N | 19.6
COc1cc2ccccc2cc1C(=O)Nc1nc(C)c(C(C)=O)s1 | 19.4
COCC(=O)Nc1cc(C)cn(Cc2cccc(C(F)(F)F)c2)c1=O | -3.85
COc1ccc(N=C2S/C(=C\c3ccc(N4CCOCC4)o3)C(=O)N2CCc2c[nH]c3ccccc23)cc1 | 17.3
O=C(O)c1ccccc1C(=O)OCCCc1ccncc1 | 18.3
C=CCn1cc(-c2cccc(C(F)(F)F)c2)cc(C#N)c1=O | -4.14
CCc1ccc(NC(=O)C(C)Oc2nnc(-c3cccs3)c(-c3cccs3)n2)cc1 (centres unmarked) | -9.79
COCCn1c(SC2CCOC2=O)nc2ccccc2c1=O (centres unmarked) | -31
Cc1nnc2ccc(-c3cccc(NS(=O)(=O)c4ccccc4[N+](=O)[O-])c3)nn12 | -13.7
CNC(=O)C1Cc2ccccc2CN1S(=O)(=O)c1ccc(OC)c(OC)c1 (centres unmarked) | 1.68
Cc1cc2nc(-c3ccc[nH]c3=O)n(Cc3cccc(F)c3)c2cc1C | 10.8
O=C1CN(C(=O)CNCc2ccc(Cl)cc2)c2ccccc2N1 | -15.4

SMILES | hERG current change (%, negative = inhibition) at 10uM [%]
Cc1cc(N=Nc2ccc(C)c(N=Nc3cc(C)c(N)cc3N)c2)c(N)cc1N | 17.7
Cc1cccc(-n2c(C)cc(/C=N\NC(=O)c3ccco3)c2C)c1 | -12.8
CCN(CC)c1ccc(/C=N/N(c2ccccc2)c2ccccc2)c(O)c1 | 13.3
Cc1ccc(C)c(S(=O)(=O)Nc2ccc(C(=O)NCC(c3ccco3)N3CCCCC3)cc2)c1 (centres unmarked) | -42.6
Cc1ccc2c(c1)c1c(n2CC(O)CN2CCC(C)CC2)CCCC1 (centres unmarked) | -58.1
CCOc1ccc(C(=O)CCC(=O)Nc2cc(C)ccn2)cc1 | 11.8
CCN1CC(=O)Nc2cc(S(=O)(=O)N3CCOCC3)ccc21 | 4.89
O=C(CN1C(=O)NC2(CCCCC2)C1=O)Nc1ccc2c(c1)OCCCO2 | -2.21
CCSc1nnc(NC(=O)Cn2cnc3ccccc3c2=O)s1 | 8.7
CCN(CC)S(=O)(=O)c1cc(C(=O)N(C)CC(=O)Nc2ccc(Cl)cc2)ccc1Cl | -22.6
O=C(c1cccc(S(=O)(=O)NCCOc2ccccc2)c1)N1CCN(c2ncccn2)CC1 | -37.6
O=C(CSc1nc(=O)[nH]c2c1CCCC2)Nc1cc(C(F)(F)F)cc(C(F)(F)F)c1 | 13.3
CCOC(=O)c1sc(NC(=O)Nc2ccccc2)cc1C | 0.859
CC1(C)COC(/C=C/c2cccc([N+](=O)[O-])c2)=N1 | -12.4
Cl.O=C(c1ccco1)N1CCN(C(c2ccccc2)c2nnnn2C2CCCC2)CC1 (centres unmarked) | -36.8
Cc1[nH][nH]c(=O)c1N=Nc1ccccc1Cl | 25.7
Cc1ccc(N(CC(=O)NC2CCCC2)C(=O)CNC(=O)c2cccs2)cc1C | 8.83
O=[N+]([O-])c1ccccc1S(=O)(=O)Nc1cccc(-c2ccc(N3CCCC3)nn2)c1 | -0.232
Cc1ccc(NC(=O)c2ccc(NCc3ccco3)c([N+](=O)[O-])c2)cc1Cl | 10.5
COc1cccc(OC)c1OCCCCCc1c(C)n[nH]c1C.Cl | 1.36

From paper PMC4336329 (PLoS ONE, 2015)
